Results published in the supplement of paper PMC11417369.
± gives the standard deviation of the averaged measurements. The list shows a part of the results.

Test system: PfAP2-LT AP2 domain (GST-tagged)
Assay: gcPBM binding intensity (ln(normalized median fluorescence intensity)); higher = stronger DNA binding
Method in brief: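 The binding buffer was 1× PBS containing 1% milk, 0.2 mg/ml BSA, 0.5% salmon testes DNA and 0.03% Triton X-100. In it, GST-tagged P. falciparum DNA-binding domains expressed in E. coli were applied for 1 h to an Agilent 4 × 180k array of primer-extended double-stranded 36-bp intergenic genomic probes plus negative controls. Binding intensity, read with Alexa488 anti-GST antibody and a 488 nm scan, is the highest Masliner-normalised natural-log median intensity across replicate spots of either probe orientation.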

Sequence	gcPBM binding intensity (ln)
TAAATCCTTTACAACACACACACAAAAAAAAAAAAA [CACACA_site643]	9.35 ± 0.38
TTTTTTTTTTTTTTTTTTTATGTATACATATTTATA [TGCATGCA_negctrl_site234]	8.54 ± 0.45
TCATTTTAAAAAAATAGTACTTTAAGAAACTTTTAT [XGTACX_site602]	8.04 ± 0.5
TTTTTTTTTTTTTTCTGTACTTAAAAAGGGGGAGAA [XGTACX_site3799]	8.96 ± 0.13
CAAACATGTTCAAATTGTACAATAGAAAATATATAT [XGTACX_site1557]	8.9 ± 0.44
TTGAAGTTTGATTGTAGTACGAATTGGTAGTTTTTT [XGTACX_site6854]	8.78 ± 0.32
CAAATACATGGACACACACACATATACAGATATATA [CACACA_site5854]	9.85 ± 0.48
GTGAATATTAAAAAATGTACACAATTATATGTATAT [XGTACX_site4834]	8.81 ± 0.42
AGAAAAGAGAGAAAAACATGCACATGATATTATAAA [TGCATGCA_site120]	8.76 ± 0.61
TTCTTTTAATTACGAGTGCATACCATATGACATTAT [GTGCAC_site9819]	8.81 ± 0.48
ATAAACATCTAGTGCTGTACACAATTTGATTTTTTT [XGTACX_site3110]	8.78 ± 0.36
GATTATATATACAAAAGTACATTATAAAAATTTCAT [XGTACX_site4223]	8.55 ± 0.55
CCCTTAAAATATAAATGTACAAAATTATTTGTATGT [XGTACX_site6164]	8.78 ± 0.33
TGAGTATATATAAATACACACCAAATGTTAATATAT [CACACA_site5022]	8.95 ± 0.32
AGGTTAATCGAAATTGCATGTGACGAAAAATCAAAA [TGCATGCA_site666]	8.7 ± 0.54
ACGTATGTATATTACACACATACATATTATTCACTA [CACACA_site204]	9.12 ± 0.3
TATTTATAACATTGTACACACAAAGAAATAATATTA [CACACA_site7422]	8.81 ± 0.45
ATAATATTTTATATAGTGCATTTGCTCATTATATAT [GTGCAC_site9528]	8.85 ± 0.36
ATGATAAACATGGATACACACATATATATTACATAT [CACACA_site1576]	9.21 ± 0.39
CATATATAACATATAACACACATACTTAGTATTACA [CACACA_site5674]	8.98 ± 0.41
ACATATATATACTATCGATTAATAAATTTGTTTTTT [CACACA_negctrl_site881]	8.71 ± 0.45
AGCACAGACTAATAAACACACACATATATATATATA [CACACA_site8021]	10.1 ± 0.18
ATATATATATATATATGTACATATTTATTTATTTAT [XGTACX_site5161]	9.6 ± 0.38

Sequence	gcPBM binding intensity (ln)
CTCATTCTTTTTTGATGTACTTTTTTTTTTTAAGTT [XGTACX_site2875]	8.57 ± 0.43
TATCTTATATTTACACGTACGTAGAATTTATAAGTT [XGTACX_site3460]	8.67 ± 0.41
TTTTATTAATATTATTTATCTTCTCAAAAGATATAT [XGTACX_negctrl_site202]	8.3 ± 0.45
CACACGTATAAATATACACACTAAAATACACGCACA [CACACA_site7876]	9.38 ± 0.4
AAAAGAGAAACATTTACACACAAATATAGATATATG [CACACA_site1027]	9.08 ± 0.44
TTTTATGGAAAGTGTTGTACATATTTTTGTATATGT [XGTACX_site7356]	8.79 ± 0.38
TTGTATAATTTAACAAGTACAAAATAAATTTGTATA [XGTACX_site5505]	8.53 ± 0.47
TTCAATTAAAAAATATGTACGCATAAATTGATATAT [XGTACX_site4289]	8.63 ± 0.34
ATAGTATACGGACACACACACACACCGATATATATA [CACACA_site5032]	10.3 ± 0.38
CTTTTTTTAGTTAGGTGTACAATTTGTTATTATTAG [XGTACX_site1507]	8.78 ± 0.52
TATAACAGGAATTATATATATATATATATATATTAT [CACACA_negctrl_site911]	9.21 ± 0.28
TTTTTTTTTTTTTTTTGTACATATTTCTTATAAGTG [XGTACX_site6459]	8.44 ± 0.45
TTTAATATGTATTTTTTTTTTTTTTTTTTTTTTTTT [XGTACX_negctrl_site440]	8.55 ± 0.13
TTTTATATCTAGTTTATATTTCTTAAATAAATAAAT [GTGCAC_negctrl_site245]	8.06 ± 0.61
CAAATTAAATATTATGCATGTACCAAACATCCTACC [TGCATGCA_site35]	8.84 ± 0.43
AACATATAAATGATATGTACACACATTTATATATAT [XGTACX_site7364]	9.12 ± 0.42
TAATACAAAAAGAAAAGTACATGTTAATTATTATTT [XGTACX_site2196]	8.56 ± 0.57
GGAAGAATATATAGGACACACATACAATAATAAATA [CACACA_site6124]	9.21 ± 0.54
TTTTTTTTTTTTTTTTTTTTTTGTGAAACTAAGTAA [CACACA_negctrl_site273]	8.16 ± 0.33
TTTTTTTTTTTTTTTTTGCAATATATTTTAAAAAAG [CACACA_negctrl_site25]	8.14 ± 0.33
AACTTCTTTTTTATAACACACAAAATATAAATACAA [CACACA_site4313]	8.56 ± 0.4
ACCTGAAGAGTCAAACGTACAAATATTATAAAATGA [XGTACX_site3188]	8.77 ± 0.59
TTAATACATTAAATATGTACTTATATATCTCAACTA [XGTACX_site3997]	8.69 ± 0.5

Sequence	gcPBM binding intensity (ln)
GTTATATTTTTTTTTTGTACATAATATTGTATTGAC [XGTACX_site6338]	9.05 ± 0.4
AGTAGCATATTCTATTGTACATATATATATATATAT [XGTACX_site2980]	9.46 ± 0.18
ATTAAAAACGGGTGTACACATATATAAATATATATA [CACACA_site4539]	9.04 ± 0.53
ATATGTATATATGTATGTACGTACAAATTGTTGTAA [XGTACX_site8832]	9.19 ± 0.4
TGTATAAAGATATATACACACATATTTATTTATATA [CACACA_site6493]	8.71 ± 0.42
TACAAAATAACTAGCACACATATGTATAAACCTATA [CACACA_site3718]	9.16 ± 0.39
ATATATAAAATTATATGTACATATATAATATATATA [XGTACX_site529]	8.77 ± 0.39
TATATAAAAATCAATTGTACTTTTTTTTTTTTTTTT [XGTACX_site7327]	8.41 ± 0.42
TATATACAAAAATGCACACGAAAAGTAATATATATA [CACACA_site4173]	9.18 ± 0.35
AAATAACACATATATACACACATATAACTATAATAT [CACACA_site7298]	9.29 ± 0.4
TATATATATATGTGCACACATATATAATATGTATAA [CACACA_site715]	9.54 ± 0.31
TAGAACAAATAAAACACACACATATATATATATATG [CACACA_site2768]	9.54 ± 0.27
TCATCCGTTTTAAGAAGTACATATTTGAACATATAA [XGTACX_site8040]	8.37 ± 0.46
TTTTTTTCTTTTCAAACACACAATTGGTATATATTA [CACACA_site3320]	8.79 ± 0.49
TTTATTTTTTAATGTTGTACAATGTTGTTTAATCAA [XGTACX_site6489]	8.67 ± 0.27
CATAGGATTATACTTTTGGAATATTATTAAATATGT [XGTACX_negctrl_site75]	8.54 ± 0.37
ACATGTCAAACATTTGCACACAAAAAAATAAAAATT [CACACA_site691]	9.16 ± 0.42
AAAAAAAAAAAAAACACACACACAATAGTATATAAA [CACACA_site957]	9.55 ± 0.43
TTGTTACTGTTTTGGTGTACAAAAAAAAAAAATATA [XGTACX_site5762]	8.55 ± 0.49
AATACAGATAATACAACACACAAGTAATATAAACCT [CACACA_site5900]	9.35 ± 0.32
TATATATATTTTTATGCACACACAAAGAAAATTTTC [CACACA_site8931]	9.1 ± 0.38
TACTTACTTACTTACTCACACACATATACAAAGAAA [CACACA_site3348]	8.99 ± 0.4
ATCACAAAATGGAATGTTCTATGATATATATGTATA [XGTACX_negctrl_site460]	8.65 ± 0.4

Sequence	gcPBM binding intensity (ln)
TGTAAATATTTATTCACACATAATCAATTAGAAAAA [CACACA_site5944]	8.43 ± 0.37
GATGATTATATATATACGCACACTTTTTTTTTTTTT [CACACA_site2652]	8.96 ± 0.43
AATATATAAATCTATTGTACATAAAGAGGATAATAA [XGTACX_site1022]	8.8 ± 0.51
TATAAATACAGATACACACACACACCGATATATATA [CACACA_site5271]	9.94 ± 0.18
ATAAATATATATATCACACATATATAATTATATATA [CACACA_site4787]	8.71 ± 0.32
TATGTAGTTTTAAAGTGTACTTATATATATTAATTG [XGTACX_site378]	8.6 ± 0.49
TACATACATATATTATGTACATATTTTATTTTTATT [XGTACX_site1642]	8.97 ± 0.43
TTTCTTTTAATAATTAAATATTTATTTATGATTATA [TGCATGCA_negctrl_site30]	8.3 ± 0.57
AAAAAAAATTCGTGTGTGCGCATATATAATATATAA	9.43 ± 0.38
AAGCATACATCAAGCACACACACACCCACAGAGACA [CACACA_site4362]	9.91 ± 0.22
TCTATACCAGAAAAGGGTACATATTTTGGATTGAAC [XGTACX_site8402]	8.71 ± 0.51
TAATAATACCCAAGCACACACACACCCATATATATA [CACACA_site4831]	10.1 ± 0.33
ATTGCAAGTTACTTGTGTACTTATAAGATTAAAAGA [XGTACX_site7696]	8.62 ± 0.45
AATATAAATAAAAACACACACAATGGTACATATATA [CACACA_site3671]	9.42 ± 0.4
TACTGTGATAGCACCACACACGCAAAAGTGGGTATA [CACACA_site4749]	9.12 ± 0.46
TTTAAATCGTTAAAAACACACAAAAAAAATCAATTA [CACACA_site2519]	8.56 ± 0.43
TCTTTTTCTTCTTATGTGCACATCAATTATGCTTCT	9.18 ± 0.62
ACTATCATTCATAGGTGTACCTAAATATATATATAT [XGTACX_site1696]	8.91 ± 0.25
GATAATTACGGACACACACACACACGCACAACTAAA [CACACA_site7254]	10.215 ± 0.0071
CGAATATATTCTAGACGTACTATATAATATATATAT [XGTACX_site4953]	8.72 ± 0.36
